The values below come from ChEMBL document CHEMBL4888484, “Replenishing the malaria drug discovery pipeline: Screening and hit evaluation of the MMV Hit Generation Library 1 (HGL1) against asexual blood stage Plasmodium falciparum ,using a nano luciferase reporter read-out” (2022).

Among all 150,000 compounds or so, about 540 (0.36%) showed an effect of 50% or more. Some of the results follow.

A word on the % Inhibition: it is the relative decrease from the control value, in per cent.

The assay deals with Plasmodium falciparum. The experiment in a line: Primary screen in NF54 nanoGlo assay, in single point, at 2uM, 72h; a lower Z score goes with more inhibition. The assay is classed as functional, Erythrocyte. To be noted: timepoint 72 hour.
On to `COc1ccc(CN2CNc3nc(C)c(C)c(=O)n3C2)cc1`, for which the “% Inhibition” value was -8% and the Z score is listed as 1.1.

For `O[C@@H](COc1ccc2cncnc2c1)C(F)(F)F`, the “% Inhibition” value is -6% and the Z score is on record as 0.91.

Take `CS(=O)(=O)N1CCC[C@H](C(=O)N2CCN(c3ccc(F)cc3)CC2)CCNC(=O)CC1`: the “% Inhibition” value is on record as 10% and the Z score was -1.29.

`CC(Oc1ccccc1)C(=O)N1C2CCC1CC(n1ccnn1)C2` (centres undefined): the “% Inhibition” value is given as -3% and the Z score turned out to be 0.44.

For the compound `COCCNC(=O)[C@H](CC(C)C)Nc1ncccn1`, the “% Inhibition” value is -10% and the Z score worked out at 1.03.

Consider `O=C(Nc1nc2c(s1)CCCC2)C(c1ccccc1)c1ccccc1`, for which the “% Inhibition” value was -29% and the Z score is given as 2.53.

Consider `COc1ccc(CN2CCN(S(=O)(=O)c3cccnc3)CC2)cn1`, for which the “% Inhibition” value is -2% and the Z score turned out to be 0.26.

With `OC(CN1CCCC(N2CCCCC2)C1)c1ccc(F)c(F)c1` (centres undefined), the “% Inhibition” value is on record as -6% and the Z score is listed as 0.52.

In the case of `CCc1nnc(-c2cc(S(=O)(=O)NCc3ccc(C)o3)c[nH]2)o1`, the “% Inhibition” value is on record as -6% and the Z score is reported as 1.12.

As to `Cc1nc(-c2cnn(C)c2)sc1C(=O)N(CCC(C)C)CCC(C)C`, the “% Inhibition” value turned out to be 0% and the Z score amounted to 0.02.

Take `CC1(C)C[C@]2(NC(=O)N(Cc3c(Cl)oc4ccccc34)C2=O)C(C)(C)O1`: the “% Inhibition” value was -6% and the Z score stood at 1.08.

`O=C(Nc1cc(Cl)ccc1Cl)[C@@H]1CCCN1C(=O)c1ccoc1`: the “% Inhibition” value turned out to be 21% and the Z score is reported as -2.66.

In the case of `CCCn1ccnc1[C@@H]1c2nc[nH]c2CCN1Cc1cccnc1N`, the “% Inhibition” value was -13% and the Z score is recorded as 1.35.

As for `CCOCc1nc([C@@H]2CCCN2S(=O)(=O)c2cccc(F)c2)no1`, the “% Inhibition” value is -10% and the Z score came to 1.27.

On to `Cc1cc2c(cc1S(=O)(=O)NC1CCCC(C)C1C)OCC(=O)N2` (centres undefined), for which the “% Inhibition” value is on record as -10% and the Z score is 1.61.

As for `CC1CCN(Cc2ccc(CNCc3c[nH]nc3-c3ccc(F)cc3)cc2)CC1`, the “% Inhibition” value worked out at 37% and the Z score is -4.62.

In the case of `C=C(C)COc1ccc(CN2CCCNC(=O)C2)cc1OCC`, the “% Inhibition” value is on record as -13% and the Z score was 1.17.

With `c1cn(CCCOc2ccc(CN3CCc4n[nH]cc4C3)cc2)cn1`, the “% Inhibition” value is reported as -10% and the Z score was found to be 1.29.

In the case of `COc1ccc(N2C(=O)c3ccccc3N[C@]23C(=O)N(Cc2ccccc2F)c2ccccc23)cc1`, the “% Inhibition” value is on record as 1% and the Z score is -0.1.

Take `FC(F)[C@@H]1Oc2ccccc2C[C@H]1c1nc(-c2cn[nH]c2)no1`: the “% Inhibition” value was -3% and the Z score is 0.65.

Regarding `CC(=O)N[C@H]1C[C@@H](c2cc(NCc3ccsc3)nc(C)n2)C1`, the “% Inhibition” value is recorded as 5% and the Z score is -0.66.

Turning to `CC(=O)N1CCC[C@H]1C(=O)N1CCc2ccccc2C1`, the “% Inhibition” value is reported as -6% and the Z score was found to be 0.7.

Consider `CCc1cnc(C)nc1NC[C@H]1CN(CC2CCN(CC3CC3)CC2)C(=O)CO1`, for which the “% Inhibition” value turned out to be 5% and the Z score is -0.67.

Regarding `O=C(c1cc2ccccn2c1)N1CC[C@H](Oc2ncccn2)C1`, the “% Inhibition” value is listed as -4% and the Z score came to 0.67.

Regarding `Cc1ccc(-c2cc3c(cc2OC(C)(C)C(=O)O)OCC3)cc1C#N`, the “% Inhibition” value is 1% and the Z score is listed as -0.17.

In the case of `CC#CCN(C)C(=O)[C@H]1CCCC(F)(F)C1`, the “% Inhibition” value is reported as -8% and the Z score stood at 0.85.

Consider `c1ccc(-c2nc(C[C@H]3CCCNC3)no2)cc1`, for which the “% Inhibition” value is on record as -17% and the Z score was 2.61.

Regarding `CC[C@]1(O)CCN(c2cccnc2C#N)C1`, the “% Inhibition” value is reported as 1% and the Z score is reported as -0.17.

For the compound `CC1CCN(C[C@H]2CCCN(C(=O)Nc3ccccc3F)CC2)CC1`, the “% Inhibition” value is listed as 1% and the Z score is given as -0.14.

Consider `COCCN(CCOC)C(=O)NCc1cccc(Cl)c1Cl`, for which the “% Inhibition” value was 11% and the Z score is given as -1.94.

Regarding `CCS(=O)(=O)N1C[C@@H]2CN(Cc3ccc(F)c(F)c3)C[C@]2(c2nc(C)no2)C1`, the “% Inhibition” value was -12% and the Z score was 1.65.

Turning to `c1ccc2c(CCCc3nc4nccc(-c5ccc6c(c5)OCCCO6)n4n3)c[nH]c2c1`, the “% Inhibition” value is -6% and the Z score came out at 0.76.

With `Cc1cc(C2(NC(=O)Nc3cc(C4(C)CCCC4)on3)CCOCC2)on1`, the “% Inhibition” value is recorded as -14% and the Z score is listed as 2.48.

For the compound `CC(C)c1nc(CCCN(C)C)n(-c2cccc(Cl)c2)n1`, the “% Inhibition” value is recorded as -7% and the Z score came out at 1.05.

Take `C[C@@H](CN(C)c1cc(-n2cccn2)nc(N)n1)C(=O)O`: the “% Inhibition” value is on record as -9% and the Z score is 1.74.

Turning to `CCOc1ccccc1S(=O)(=O)N1C2C=CCC1CC2` (centres undefined), the “% Inhibition” value is given as 6% and the Z score is given as -1.08.

As to `CC(C)(C)C1CNC(=O)C1C(=O)NCCc1ccc(Cl)cc1` (centres undefined), the “% Inhibition” value was -1% and the Z score is recorded as 0.09.

As for `CCN(C)CC(=O)N1CCC2(CC1)CC(=O)N(Cc1cc(F)cc(F)c1)C2`, the “% Inhibition” value is on record as -14% and the Z score is 2.32.

As to `O=C(c1ccccc1Br)N1CCC(n2ccnn2)CC1`, the “% Inhibition” value was -6% and the Z score came out at 1.16.

Take `O=S(=O)(c1ccc(/C=C/c2nc3ccccc3o2)cc1)N1CCOCC1`: the “% Inhibition” value was -31% and the Z score is 3.63.

As for `Cc1cccc(-c2nc(C[N+]3(Cc4nc(-c5cccc(C)c5)oc4C)CCCC3)c(C)o2)c1`, the “% Inhibition” value stood at 29% and the Z score is -6.09.

As to `Nc1nccnc1C(=O)NC[C@@H](c1ccco1)N1CCCC1`, the “% Inhibition” value was -3% and the Z score worked out at 0.44.
